Out of some 310,000 compounds screened, about 14,000 (4.5%) showed an effect of 50% or more. The effect is printed as a negative number. The list shows a part of the results.
Target: human ether-à-go-go-related gene (hERG) potassium channel (human, UniProt Q12809)
Test: primary screen, population patch clamp on CHO cells stably expressing hERG
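Note: peak tail current of the secondary pulse compared with the same well before compound.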

human ether-à-go-go-related gene (hERG) potassium channel, sequence (Q12809 whole entry, looked up): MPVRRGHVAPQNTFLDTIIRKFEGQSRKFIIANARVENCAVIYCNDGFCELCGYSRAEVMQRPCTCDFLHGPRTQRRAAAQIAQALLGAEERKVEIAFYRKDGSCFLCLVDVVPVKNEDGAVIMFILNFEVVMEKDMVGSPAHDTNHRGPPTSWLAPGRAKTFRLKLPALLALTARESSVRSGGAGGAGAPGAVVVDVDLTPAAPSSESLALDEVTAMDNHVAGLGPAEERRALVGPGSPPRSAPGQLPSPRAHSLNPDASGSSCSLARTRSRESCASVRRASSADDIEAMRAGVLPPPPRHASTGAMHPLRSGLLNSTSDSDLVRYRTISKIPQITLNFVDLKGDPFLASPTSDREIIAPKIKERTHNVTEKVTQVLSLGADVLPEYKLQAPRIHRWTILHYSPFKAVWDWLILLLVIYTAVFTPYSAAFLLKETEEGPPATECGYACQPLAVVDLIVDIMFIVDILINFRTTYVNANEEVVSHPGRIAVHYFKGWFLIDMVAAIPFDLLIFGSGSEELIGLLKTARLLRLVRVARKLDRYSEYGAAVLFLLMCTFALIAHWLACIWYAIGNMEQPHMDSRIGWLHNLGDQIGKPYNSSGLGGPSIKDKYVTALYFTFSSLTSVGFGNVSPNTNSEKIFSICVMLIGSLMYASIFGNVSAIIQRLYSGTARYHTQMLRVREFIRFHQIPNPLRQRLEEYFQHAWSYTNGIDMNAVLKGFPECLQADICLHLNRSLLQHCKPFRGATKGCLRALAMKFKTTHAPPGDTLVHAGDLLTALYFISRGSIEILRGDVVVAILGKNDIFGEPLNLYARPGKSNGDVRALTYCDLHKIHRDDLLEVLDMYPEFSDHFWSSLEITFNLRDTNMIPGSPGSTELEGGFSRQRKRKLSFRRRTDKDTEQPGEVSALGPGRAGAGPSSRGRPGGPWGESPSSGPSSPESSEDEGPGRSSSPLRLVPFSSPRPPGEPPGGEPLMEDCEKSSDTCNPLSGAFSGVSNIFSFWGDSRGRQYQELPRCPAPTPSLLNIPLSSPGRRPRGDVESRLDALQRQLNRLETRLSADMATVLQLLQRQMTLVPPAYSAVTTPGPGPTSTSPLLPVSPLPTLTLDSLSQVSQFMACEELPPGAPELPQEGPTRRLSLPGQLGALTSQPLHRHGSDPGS

Row | SMILES | hERG current change (%, negative = inhibition) at 10uM
1 | O=C1Cc2ccccc2C(c2ccc(Br)cc2)N1 (stereo not shown) | -10.1%
2 | COc1ccc(C2=NN3C(C2)c2ccccc2OC3c2cccs2)cc1 (stereo not shown) | 10.8%
3 | Cc1ncc([N+](=O)[O-])n1CC(=O)Nc1ccc(F)cc1F | 13.3%
4 | COc1cc(C(=O)NCC(=O)N/N=C(\C)Cc2ccccc2)cc(OC)c1OC | 15%
5 | COc1cccc(-c2nn3c(-c4ccco4)nnc3s2)c1 | -32%
6 | Cc1occc1C(=O)NNC(=O)Nc1ccc([N+](=O)[O-])cc1 | -12.4%
7 | Cc1cc(Br)ccc1NC(=O)CN1C(=O)C2CC=CCC2C1=O (stereo not shown) | 3.16%
8 | O=C(CSCc1ccc(Cl)cc1)NN=C1CCCCCC1 | -28.7%
9 | CCOC(=O)c1c(S(=O)(=O)NCc2ccc(C)o2)c(C)n(C)c1C | -22.3%
10 | N/C(=N\OC(=O)CSc1ccccc1)c1ccc([N+](=O)[O-])cc1 | -11.7%
11 | CCC(C)N1C(=O)C2C(C(=O)Nc3cccc(OC)c3)C3C=CC2(O3)C1C(=O)NC1CCCCC1C (stereo not shown) | -6.83%
12 | Cc1ccc(NC(=O)c2c(F)cccc2Cl)cc1S(=O)(=O)N1CCOCC1 | -7.14%
13 | Cc1ccc(N(C(=O)c2ccc3c(c2)OCO3)C2C=CS(=O)(=O)C2)cc1C (stereo not shown) | -28.1%
14 | Cc1coc2c(C)c3oc(=O)c(CCC(=O)N(C)CC(=O)O)c(C)c3cc12 | 8.09%
15 | C[N+](C)(CC#N)C/C=C\c1ccccc1.[Cl-] | 4.52%
16 | COc1ccc(C(=O)n2c(C)c(CCO)c(=O)n2C)cc1 | 15.4%
17 | Cc1c(Cl)cccc1NC(=O)CCCN1C(=O)c2cccnc2C1=O | 24.8%
18 | COCCOC(=O)c1cc(C(=O)c2cc(F)ccc2O)coc1=N | 9.29%
19 | CC(C)CC(NC(=O)C(CC(C)C)NC(=O)OC(C)(C)C)C(N)=O (stereo not shown) | 13.8%
20 | Cc1cc(C)cc(C(=O)NC(CC(N)=O)c2ccc(NCCN3CCOCC3)c([N+](=O)[O-])c2)c1 (stereo not shown) | 12.3%
21 | COc1ccc(S(=O)(=O)N(C)c2ccc(C(=O)N3CCC(C(N)=O)CC3)cc2)cc1OC | 32.7%
22 | COc1ccc(C(=O)N=C2SC3CS(=O)(=O)CC3N2c2ccccc2)cc1OC (stereo not shown) | 11%

Row | SMILES | hERG current change (%, negative = inhibition) at 10uM
23 | CSc1c(-c2ccccn2)c(N)nn1C(=O)C1CC1 | 12.9%
24 | CC(C)=CCN1CCC(n2nccc2NC(=O)c2ccccc2Cl)CC1 | -57.9%
25 | COc1ccc(CCNS(=O)(=O)c2ccc(-n3cnnn3)c(OC)c2)cc1OC | 8.35%
26 | NS(=O)(=O)c1cccc(NC(=O)CN2CCN(Cc3ccc4c(c3)OCO4)CC2)c1 | -39.1%
27 | Cc1cc(C(=O)NCCCC(=O)O)c(C)o1 | 0.197%
28 | CC(C)CC(C(=O)O)N1C(=O)C2C3C=CC(C2C1=O)C1C(=O)N(C(CC(C)C)C(=O)O)C(=O)C31 (stereo not shown) | 17.8%
29 | Cc1noc(C)c1CSCC(=O)N(C)CC(=O)Nc1cccc(F)c1 | -33.1%
30 | CC1CCN(S(=O)(=O)c2ccc(NC(=O)c3ccccc3F)cc2)CC1 | -1.47%
31 | C/C(Cc1ccccc1)=N\NC(=O)CNC(=O)COc1cccc(C)c1 | -2.8%
32 | C=CCn1nnnc1-c1cc(Cl)cc(Cl)c1 | 5.14%
33 | CC(OC(=O)c1cc[n+]([O-])cc1)C(=O)Nc1ccc(C(N)=O)cc1 (stereo not shown) | 16%
34 | CCN(C(=O)C1CCCN(c2nc(-c3ccc(OC)cc3)no2)C1)c1ccccc1F (stereo not shown) | -3.28%
35 | Cc1ccc(C(=O)Nc2cccc(C(=O)N3CCOCC3)c2)cc1Cl | -0.452%
36 | O=C(N[C@@H](Cc1ccccc1)C(=O)OCC(=O)N1CCOCC1)c1cccs1 | -9.98%
37 | CC(=O)NC1=NN(C(C)=O)C(C)(CCS(=O)(=O)c2ccc(Br)cc2)S1 (stereo not shown) | 0.96%
38 | N#Cc1c(SCc2c(Cl)cccc2Cl)nc(N)[nH]c1=S | 19.6%
39 | Cc1cccc(NC(=O)CSc2nc3nc(C)cc(C)n3n2)c1 | -32.6%
40 | Cc1nsc(Nc2ccc([N+](=O)[O-])cc2)c1C#N | 14.8%
41 | CCc1nnc(NC(=O)CSc2ccc(-c3ccc(C)cc3)nn2)s1 | 9.49%
42 | O=C1C2C(C(=O)N1CCN1CCN(Cc3ccc([N+](=O)[O-])cc3)CC1)[C@H]1C=C[C@@H]2C1 (stereo partly shown) | -28.6%
43 | CN1CCN(CC2(O)CCN(S(=O)(=O)c3ccc(Cl)cc3)CC2)CC1 | -36%
44 | S=c1[nH]nc(-c2n[nH]c3c2CCC3)n1/N=C/C=C/c1ccco1 | 6.62%

Row | SMILES | hERG current change (%, negative = inhibition) at 10uM
45 | Cc1cc(C)c2nc(NNC(=O)c3ccc(S(=O)(=O)N4CCc5ccccc5C4)cc3)sc2c1 | 8.25%
46 | Cc1ccc(C(=O)C[n+]2ccc3ccccc3c2)cc1.[Br-] | -33.6%
47 | CCC(=O)N=C1SC2CS(=O)(=O)CC2N1c1cccc(OC)c1 (stereo not shown) | -3.11%
48 | Cc1cc(C)nc(SCC(=O)OCC(=O)Nc2nc3ccccc3s2)n1 | 16.9%
49 | COc1cc(CN2CCC(C(N)=O)CC2)ccc1OCc1ccccc1.O=C(O)C(=O)O | -39.9%
50 | CC(=O)OCCn1c(=O)c2cc3c(=O)n(CCOC(C)=O)c(=O)c3cc2c1=O | -4.39%
51 | O=C(NCC(c1ccc(F)cc1)N1CCOCC1)c1nn(-c2ccccc2)c(=O)c2ccccc12 (stereo not shown) | -8.35%
52 | CCOC(=O)N1CCN(C(=O)C(C)(C)Oc2ccc(Cl)cc2)CC1 | -10.4%
53 | O=C(O)CN1C(=O)COc2ccc(S(=O)(=O)N3CCCCCC3)cc21 | 13.7%
54 | Cc1ccc(-n2nnnc2SCC#N)cc1 | -0.72%
55 | CCOc1ccccc1NC(=O)N1CCCC1C(=O)Nc1ccc(NC(C)=O)cc1 (stereo not shown) | -0.805%
56 | Cc1ccc(Cn2ncc3c(N4CCCC4)ncnc32)cc1 | -41%
57 | O=C(O)c1cc(C2CC2)nn1-c1ccccc1 | 17.5%
58 | O=C(N/N=C/C=C/c1ccccc1)c1cc2c(ccc3ccccc32)o1 | 13.1%
59 | O=C(NC1CCC(O)CC1)c1cc(-c2ccc(Cl)cc2)nc2ccccc12 (stereo not shown) | -10.1%
60 | Cc1c(C(=O)OCc2ccc(F)cc2)sc2nc3n(c(=O)c12)CCC3 | -2.44%
61 | CCc1ccc(CN(C)Cc2nc(Cc3ccc(OC)c(OC)c3)no2)nc1 | -8.33%
62 | COc1ccc(Nc2ncc(C(=O)O)c3ccccc23)cc1 | 23.3%
63 | COC(=O)CCC(=O)Nc1nc(-c2ccccc2)cs1 | 21.4%
64 | COc1ccc(S(=O)(=O)N2CCOC2CNC(=O)C(=O)NCCCn2ccnc2)cc1OC (stereo not shown) | 10.9%
65 | O=C(CCn1c(=S)[nH]c2ccccc2c1=O)Nc1ccc(F)cc1 | 18%
66 | C=C(C)c1cccc(C(C)(C)NC(=O)N2CCCC(C)C2)c1 (stereo not shown) | 14.3%

Row | SMILES | hERG current change (%, negative = inhibition) at 10uM
67 | CN(CCO)CCOCCOc1cccc2ccccc12 | -12.5%
68 | CCOC(=O)NC(c1ccc(C(C)C)cc1)C(Cl)(Cl)Cl (stereo not shown) | 1.44%
69 | Cc1ccc2nc(SC(C)C(=O)N3CCCCC3)[nH]c2c1 (stereo not shown) | 14.7%
70 | COc1ccc(OCC(=O)NCCCn2ccnc2)cc1.Cl | 6.15%
71 | Cc1ccc(CONC(=O)/N=C/N(C)C)cc1 | -7.43%
72 | c1csc(-c2csc3ncnc(NCCCN4CCOCC4)c23)c1 | -16.4%
73 | CCCn1nnc(NC(=O)c2ccccc2Cl)n1 | 6.62%
74 | COc1cc(OC)c(OC)cc1/C=C1\C(=O)NC(=O)N(Cc2ccccc2)C1=O | 14.7%
75 | O=C(COC(=O)Cc1cccc(F)c1)NCCc1ccccc1 | 1.94%
76 | COc1ccc(C2CC(c3ccccc3)=NN2C(=O)CSc2nnnn2-c2cccc(C)c2)cc1 (stereo not shown) | 0.691%
77 | O=C(CCCNC(=O)/C(=C/c1ccccc1F)NC(=O)c1ccccc1)OCc1ccccc1 | -5.02%
78 | Cc1c(C(=O)N2CCCCCC2)c(S(=O)(=O)Nc2cccc(F)c2)c(C)n1C | 9.56%
79 | Cc1ccnc(SCC(=O)N2CCCc3ccccc32)n1 | 0.164%
80 | Cc1ccc(C(C)NC(=O)C23CC4CC(CC(C4)C2)C3)cc1 (stereo not shown) | 11.4%
81 | O=C(CC1c2ccccc2Oc2ccccc21)Nc1ccccc1C(F)(F)F | 0.279%
82 | CCCn1c(CN2CCN(C(=O)OCC)CC2)nc2cc([N+](=O)[O-])ccc21 | -64%
83 | O=C(/C=C/c1ccc(Cl)cc1)Nc1ccc(N2CCCCC2)cc1 | -0.732%
84 | Cc1cc(C)cc(CC2CC(=O)N(c3ccc(Cl)cn3)C2=O)c1 (stereo not shown) | -17.2%
85 | Cc1ccc(-n2nnnc2SCc2nnc(-c3ccccc3Br)o2)c(C)c1 | 12.2%
86 | CC(=O)c1cc(-c2ccccc2)n(CC(=O)Nc2cccc(C)c2C)c1C | 2.16%
87 | CCOC(CCNC(=O)c1cn(CCOC)c(=O)c2c1c1ccccc1n2C)OCC | 5.72%
88 | CSc1ccccc1NC(=O)CN(C)C(C)C(=O)NC(=O)NC1CCCCC1 (stereo not shown) | -20.5%

From article PMC4336329 (PLoS ONE, 2015)
